This note sets out measurements from a collection of fitness landscapes (doi:10.1126/science.1257360).

This is one part of the list. A value given as a limit tells only on which side of the number the result lay.

To fix the notation:
B1: PhoQ; a variant is named by its letters at X, in order, P23837 (parent)
chain: MKKLLRLFFPLSLRVRFLLATAAVVLVLSLAYGMVALIGYSVSFDKTTFRLLRGESNLFYTLAKWENNKLHVELPENIDKQSPTMTLIYDENGQLLWAQRDVPWLMKMIQPDWLKSNGFHEIEADVNDTSLLLSGDHSIQQQLQEVREDDDDAEMTHSVAVNVYPATSRMPKLTIVVVDTIPVELKSSYMVWSWFIYVLSANLLLVIPLLWVAAWWSLRPIEALAKEVRELEEHNRELLNPATTRELTSLVRNLNRLLKSERERYDKYRTTLTDLTHSLKTPLXXLQXXLRSLRSEKMSVSDAEPVMLEQISRISQQIGYYLHRASMRGGTLLSRELHPVAPLLDNLTSALNKVYQRKGVNISLDISPEISFVGEQNDFVEVMGNVLDNACKYCLEFVEISARQTDEHLYIVVEDDGPGIPLSKREVIFDRGQRVDTLRPGQGVGLAVAREITEQYEGKIVAGESMLGGARMEVIFGRQHSAPKDE

This test covers variants of B1. Nature of the test: enrichment ratio after two sorts for PhoP signalling (ratio (wild type AVST 3.29)); higher = more functional. The note with it: with PhoP (E. coli).
As for RANE, the enrichment ratio is at most 0.25.

Regarding WYDF, the enrichment ratio was at most 0.25.

In the case of VVAA, the enrichment ratio is at most 0.25.

On to FRWM, for which the enrichment ratio is at most 0.25.

On to VEKC, for which the enrichment ratio is at most 0.25.

WQHN: the enrichment ratio is at most 0.25.

As for VYPV, the enrichment ratio is at most 0.25.

Take VQCW: the enrichment ratio is at most 0.25.

With FYIH, the enrichment ratio is at most 0.25.

In the case of LASP, the enrichment ratio was at most 0.25.

YWGE: the enrichment ratio is at most 0.25.

In the case of PDGS, the enrichment ratio was at most 0.25.

With TRRT, the enrichment ratio is at most 0.25.

On to LNMT, for which the enrichment ratio is at most 0.25.

Turning to LAQT, the enrichment ratio was at most 0.25.

Take EDKR: the enrichment ratio is at most 0.25.

Turning to WKHN, the enrichment ratio is at most 0.25.

For the variant QMWT, the enrichment ratio was at most 0.25.

Take TTKY: the enrichment ratio is at most 0.25.

In the case of MMKA, the enrichment ratio is at most 0.25.

With RHFW, the enrichment ratio is at most 0.25.

Regarding GIYA, the enrichment ratio was at most 0.25.

As to LAGA, the enrichment ratio is at most 0.25.

In the case of MVSC, the enrichment ratio was at most 0.25.

Take DKVR: the enrichment ratio was at most 0.25.

Regarding MWLT, the enrichment ratio is at most 0.25.

VCIL: the enrichment ratio is at most 0.25.

On to INNY, for which the enrichment ratio is at most 0.25.

Regarding SQKY, the enrichment ratio was at most 0.25.

For AIQE, the enrichment ratio is at most 0.25.

Turning to GFVW, the enrichment ratio was at most 0.25.

Regarding KLIG, the enrichment ratio is at most 0.25.

For the variant VAMS, the enrichment ratio was determined as 0.988.

On to VTYM, for which the enrichment ratio is at most 0.25.

Consider SMFH, for which the enrichment ratio is at most 0.25.

With NTTT, the enrichment ratio is at most 0.25.

As for IEWC, the enrichment ratio is at most 0.25.

As to LKQL, the enrichment ratio was at most 0.25.

Consider MISR, for which the enrichment ratio is at most 0.25.

YDPN: the enrichment ratio was at most 0.25.

Take PHIR: the enrichment ratio was at most 0.25.

As for GHCR, the enrichment ratio is at most 0.25.

Regarding RSAR, the enrichment ratio was at most 0.25.

As for MDHV, the enrichment ratio was at most 0.25.

As to MIMG, the enrichment ratio was at most 0.25.

As to KNKS, the enrichment ratio is at most 0.25.

As to LHFS, the enrichment ratio was at most 0.25.

As for SQNI, the enrichment ratio was at most 0.25.

On to SGCI, for which the enrichment ratio came out at 10.3.

As to YHKW, the enrichment ratio is at most 0.25.

As to WGDI, the enrichment ratio is at most 0.25.

KGIT: the enrichment ratio was at most 0.25.

Consider EVAY, for which the enrichment ratio is at most 0.25.

With ARRI, the enrichment ratio is at most 0.25.

Regarding PHSG, the enrichment ratio is at most 0.25.

Turning to AVLN, the enrichment ratio turned out to be 11.1.

On to AWTY, for which the enrichment ratio was at most 0.25.

On to YVNN, for which the enrichment ratio is at most 0.25.

With SPQG, the enrichment ratio was at most 0.25.

LETI: the enrichment ratio is at most 0.25.

As for QPIH, the enrichment ratio was at most 0.25.

Regarding EFYY, the enrichment ratio was at most 0.25.

Consider PSTY, for which the enrichment ratio is at most 0.25.

Turning to KFIW, the enrichment ratio was at most 0.25.

In the case of LIYD, the enrichment ratio was at most 0.25.

As to AHKI, the enrichment ratio is at most 0.25.

In the case of NSLE, the enrichment ratio was at most 0.25.

As to RIFM, the enrichment ratio was at most 0.25.

KGLI: the enrichment ratio was at most 0.25.

With TGRC, the enrichment ratio is at most 0.25.

On to IVIQ, for which the enrichment ratio was at most 0.25.

Consider IHVP, for which the enrichment ratio was at most 0.25.

On to VSTD, for which the enrichment ratio is at most 0.25.

Take IHPC: the enrichment ratio is at most 0.25.

Consider AAAP, for which the enrichment ratio is at most 0.25.

As to HREA, the enrichment ratio was at most 0.25.

Consider AFVY, for which the enrichment ratio was at most 0.25.

For the variant WKKL, the enrichment ratio is at most 0.25.

For WQVF, the enrichment ratio was at most 0.25.

As to ENRI, the enrichment ratio is at most 0.25.

RAAH: the enrichment ratio was at most 0.25.

As to FFEI, the enrichment ratio is at most 0.25.

For DQWC, the enrichment ratio was at most 0.25.

For the variant FSTI, the enrichment ratio came to 1.62.

Regarding LVIN, the enrichment ratio was at most 0.25.

For MCTQ, the enrichment ratio was at most 0.25.

In the case of GKIK, the enrichment ratio is at most 0.25.

Regarding HHPN, the enrichment ratio was at most 0.25.

Turning to VWQF, the enrichment ratio was at most 0.25.

With LDGV, the enrichment ratio is at most 0.25.

As for LTYC, the enrichment ratio is at most 0.25.

In the case of DWVL, the enrichment ratio came out at 0.963.

KQCH: the enrichment ratio was at most 0.25.

Consider AIYN, for which the enrichment ratio is at most 0.25.

Turning to MMRL, the enrichment ratio is at most 0.25.

Regarding DHNQ, the enrichment ratio is at most 0.25.

Consider YAQG, for which the enrichment ratio is at most 0.25.

As to DSRR, the enrichment ratio is at most 0.25.

On to EHFV, for which the enrichment ratio is at most 0.25.

On to RSFW, for which the enrichment ratio was at most 0.25.

For the variant LAFR, the enrichment ratio is at most 0.25.

As to EMKC, the enrichment ratio is at most 0.25.

As for TRAY, the enrichment ratio was at most 0.25.

Turning to RNKD, the enrichment ratio was at most 0.25.

For GLDY, the enrichment ratio was at most 0.25.

QNLD: the enrichment ratio was at most 0.25.

With WRQM, the enrichment ratio was at most 0.25.

Turning to YRAW, the enrichment ratio is at most 0.25.

As for SWRT, the enrichment ratio was at most 0.25.

Turning to RLIN, the enrichment ratio was at most 0.25.

Regarding HQGI, the enrichment ratio is at most 0.25.

Consider DGEA, for which the enrichment ratio was at most 0.25.

On to PEWI, for which the enrichment ratio is at most 0.25.

On to KCYN, for which the enrichment ratio is at most 0.25.

For IKRI, the enrichment ratio is at most 0.25.

Take YHDF: the enrichment ratio is at most 0.25.

For the variant FHYY, the enrichment ratio is at most 0.25.

As for AKCM, the enrichment ratio worked out at 15.6.

As to NWRT, the enrichment ratio was at most 0.25.

With QLAS, the enrichment ratio is at most 0.25.

Take SCKL: the enrichment ratio was at most 0.25.

PPQS: the enrichment ratio is at most 0.25.

Turning to NITH, the enrichment ratio is at most 0.25.

Turning to WCAF, the enrichment ratio was at most 0.25.

Take QDFV: the enrichment ratio was at most 0.25.

In the case of TYVE, the enrichment ratio is at most 0.25.

For the variant YEAA, the enrichment ratio was at most 0.25.

With SYAF, the enrichment ratio was at most 0.25.

For GRDL, the enrichment ratio was at most 0.25.

As for LKIT, the enrichment ratio is at most 0.25.

Regarding VHTW, the enrichment ratio was at most 0.25.

In the case of MSEV, the enrichment ratio is at most 0.25.

In the case of ENWL, the enrichment ratio was at most 0.25.

In the case of WCGP, the enrichment ratio is at most 0.25.

As to KFTR, the enrichment ratio was at most 0.25.

As to GMIP, the enrichment ratio was at most 0.25.

Consider TNAI, for which the enrichment ratio stood at 7.87.

As for ICWV, the enrichment ratio was at most 0.25.

Turning to TNHY, the enrichment ratio was at most 0.25.

As for FHAQ, the enrichment ratio was at most 0.25.

For HGYE, the enrichment ratio is at most 0.25.

Consider SYVR, for which the enrichment ratio was at most 0.25.

Consider TMTG, for which the enrichment ratio amounted to 3.06.

On to WVTW, for which the enrichment ratio was at most 0.25.

For AIWH, the enrichment ratio was at most 0.25.

As for FQMS, the enrichment ratio was at most 0.25.

Consider FIIY, for which the enrichment ratio is at most 0.25.

For the variant IQLY, the enrichment ratio was at most 0.25.

As for VAHG, the enrichment ratio is at most 0.25.

On to TLHE, for which the enrichment ratio was at most 0.25.

For the variant KMKQ, the enrichment ratio is at most 0.25.

As for IAMA, the enrichment ratio was at most 0.25.

GQHA: the enrichment ratio was at most 0.25.
